PubChem BioAssay AID1745849 (National Center for Advancing Translational Sciences (NCATS), 2022)
The whole screen tested about 2,100 compounds, of which about 320 (15%) were called active. Inconclusive means that the source gave no clear call. Such entries were picked first, then a sample of the others. Calls come from the whole dose curve; as a rule, active = well fitted cell-killing curve with a large enough effect; inconclusive = small, poorly fitted or top-dose-only effect, or effect the other way; inactive = flat fitted curve, though single readings scatter. A potency beside an inconclusive call is a rough fit, not a confirmed value.

Assay: Viability Counterscreen for CMV-Luciferase Assay of Inhibitors of ATXN expression; note: nearly all actives have a fitted effect of over 55% in size
Conditions: HEK-293 CMV-luciferase cells viability, protease fluorescence, 24 h; activity change, negative = cytotoxicity: at the top concentration
Outline: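 Luminescence read-out: SteadyGlo added, 5 min RT, measured in CMV-luciferase HEK-293 cells after 24 hr compound treatment (several concentrations). Viability counterscreen: 25 uM Gly-Phe-7-amino-4-trifluoromethylcoumarin, 30 min at 37 degree C, fluorescence ex 405/em 540 nm.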
% is set by controls: 0 for no effect and ±100 for the full control effect; potency is the fitted concentration of half-maximal effect; tags give direction and shape of the fitted curve.

| Compound | activity change, negative = cytotoxicity | Potency |
| --- | --- | --- |
| CCOc1ccccc1C(=O)Nc1ccc2nc(N3CCN(c4ncccn4)CC3)cc(C)c2c1 | inactive: 27.6% [at 57.5 µM] |  |
| Cc1nc(N/N=C/c2ccc(O)cc2O)cc(N2CCOCC2)n1 |  | inconclusive: 7.94 µM [cytotoxic, full curve, poor fit] |
| COc1ccc(CN(C)C(=O)c2cccc(NC(=O)CC3SC(N4CCCCC4)=NC3=O)c2)c(OC)c1 (configuration not stated) |  | inconclusive: 20 µM [cytotoxic, single point] |
| OC1(c2ccc(Br)cc2)CCNCC1 | inactive: -7.05% |  |
| Cc1ccc(-c2cc(C(=O)NCCCN3CCOCC3)no2)cc1 | inactive: -0.121% [at 57.5 µM] |  |
| O=C(NCCc1csc(-c2ccc(Cl)cc2)n1)c1ccco1 |  | inconclusive: 25.1 µM [cytotoxic, single point] |
| Clc1ccc(C[n+]2cc(-c3ccccc3)n3c2CCCCC3)c(Cl)c1 |  | inconclusive: 14.1 µM [cytotoxic, partial curve, poor fit] |
| CC(C)[C@H](NC(=O)c1ccc(C(C)(C)C)cc1)C(=O)N1CCN(Cc2ccc3c(c2)OCO3)CC1 |  | inconclusive: 25.1 µM [cytotoxic, single point] |
| O=C(NCCc1ccccc1)c1ccc2nccnc2c1 |  | inconclusive: 1 µM [cytotoxic, partial curve] |
| COc1ccc(-c2csc(NC(=O)c3ccccc3NS(=O)(=O)c3ccc(F)c(F)c3)n2)cc1 |  | active: 2.24 µM |
| CCCCCn1c(=O)c2ccccc2n2c(CCl)nnc12 |  | active: 14.1 µM |
| CCc1nc2c(OCCOc3ccc(F)cc3)cccn2c1N(C)C(=O)c1ccco1 | inactive: 14.6% [at 57.5 µM] |  |
| CCCCC(=O)OCC(=O)C1(O)Cc2c(O)c3c(c(O)c2C(OC2CC(NC(=O)C(F)(F)F)C(O)C(C)O2)C1)C(=O)c1c(OC)cccc1C3=O (configuration not stated) |  | active: 8.91 µM |
| Cc1cc(C)c2nc(N3CCCC(C(=O)N4CCN(c5ncccn5)CC4)C3)sc2c1 (configuration not stated) |  | inconclusive: 1.78 µM [cytotoxic, partial curve] |
| OC[C@@H]1CN(Cc2ccncc2)C[C@H](n2cnc3c(N4CCN(c5ccccc5)CC4)ncnc32)O1 | inactive: -2.73% |  |
| CN(C)CCCN(C(=O)CCc1ccccc1)c1nc2ccc(Br)cc2s1 |  | active: 22.4 µM |
| Cc1ccc(S(=O)(=O)N(C(=O)c2ccncc2)c2ccc(OC(=O)c3ccncc3)c3ccccc23)cc1 |  | inconclusive: 3.98 µM [cytotoxic, single point] |
| Oc1ccc(C[C@@H]2CNCCN2CCc2cc(C(F)(F)F)cc(C(F)(F)F)c2)cc1 | inactive: -23% |  |
| Cc1nn(Cc2c(F)c(F)c(F)c(F)c2F)c(C)c1NC(=O)c1ccc(COc2ccc(Cl)cc2Cl)o1 |  | inconclusive: 22.4 µM [cytotoxic, single point] |
| COc1cccc(/C=N/NC(=O)c2c(-c3ccccc3)noc2C)c1O |  | inconclusive: 0.316 µM [cytotoxic, partial curve, poor fit] |
| COc1ccc(F)cc1-c1cc(NC=O)c2ncc(-c3cccc(C(=O)N(C)C)c3)n2c1 |  | inconclusive: 3.55 µM [cytotoxic, single point] |
| COc1ccccc1N1CCN(Cc2ccc(O)c3ncccc23)CC1 |  | inconclusive: 1.12 µM [cytotoxic, partial curve] |
| CCN(CC)c1nc(-c2ccccn2)nc(-c2ccccc2)c1C#N |  | active: 5.62 µM |

| Compound | activity change, negative = cytotoxicity | Potency |
| --- | --- | --- |
| NC(N)=N/N=C/c1ccc2cccc(OCc3ccccc3)c2n1 |  | active: 14.1 µM |
| Cc1c(C(=O)N2CCN(c3ccc(F)cc3)CC2)sc2ncnc(N3CCN(c4ccccn4)CC3)c12 |  | inconclusive: 6.31 µM [cytotoxic, single point] |
| c1cnc2c(c1)ccc1cccnc12 |  | active: 5.01 µM |
| CCCCn1c(SCc2ncc(-c3ccccc3)o2)nc2cc(S(N)(=O)=O)ccc21 |  | inconclusive: 14.1 µM [cytotoxic, partial curve, poor fit] |
| CCC1(c2ccccc2)ON(c2c(Br)cccc2Br)C1=O (configuration not stated) |  | active: 17.8 µM |
| Cc1ccc(NC(=O)CCC(=O)c2cc(C)sc2C)nc1 | inactive: -25.1% [at 57.5 µM] |  |
| Cc1nn(-c2ccccc2)c(N2CCCC2)c1/C=N/NC(=O)c1cc2ccccc2cc1O | inactive: -4.71% |  |
| C(=NN1CCCCCC1)c1ccc2ccccc2n1 |  | inconclusive: 14.1 µM [cytotoxic, partial curve, poor fit] |
| COc1cccc(C(=O)c2sc(NC(C)C)nc2N)c1 |  | inconclusive: 3.16 µM [cytotoxic, partial curve] |
| COc1ccc(-c2csc(N(CCCN(C)C)C(=O)c3ccccc3Cl)n2)cc1 |  | inconclusive: 2.51 µM [cytotoxic, partial curve, poor fit] |
| Oc1ccc(Cl)c2cccnc12 | inactive: 25% [at 57.5 µM] |  |
| CCc1nnc(NC(=O)c2ccc(S(=O)(=O)N(C)Cc3ccccc3)cc2)o1 |  | inconclusive: 11.2 µM [cytotoxic, partial curve, poor fit] |
| CN(C)CCNc1ncnc2c1sc1nc(N3CCCC3)c3c(c12)CC(C)(C)OC3 |  | inconclusive: 20 µM [cytotoxic, partial curve] |
| CN(Cc1ccccc1)C(=O)c1ccc(NC(=O)C2CCN(C(=O)OC(C)(C)C)CC2)cc1 |  | inconclusive: 15.8 µM [cytotoxic, partial curve] |
| CCC1(O)C(=O)OCc2c1cc1n(c2=O)Cc2cc3cc(O)ccc3nc2-1 (configuration not stated) |  | inconclusive: 25.1 µM [rising, partial curve] |
| CCN(CC)C(=O)C1=C(C)N(CCC2=CCCCC2)C(=O)C(CC(=O)NC(c2ccccc2)c2ccccc2)C1 (configuration not stated) | inactive: -26.1% |  |
| CC1=CC(C)(C)N2C(=O)C3(SCC(=O)N3c3ccc(F)cc3)c3cc(C)cc1c32 (configuration not stated) | inactive: -24% |  |
| Oc1c(C(Nc2ccccn2)c2ccccn2)ccc2cccnc12 (configuration not stated) |  | inconclusive: 2.82 µM [cytotoxic, full curve, poor fit] |
| CCOC(=O)N1CCN(Cc2cc(Cl)c3cccnc3c2O)CC1 | inactive: -27.9% |  |
| CCCCc1ccc(NC(=O)N2CCN(c3cc(C)nc4ccccc34)CC2)c(C)c1 |  | inconclusive: 25.1 µM [cytotoxic, single point] |
| COc1ccc(C2CC(c3ccccc3Cl)=NN2c2ccc(S(N)(=O)=O)cc2)cc1 (configuration not stated) |  | inconclusive: 39.8 µM [rising, single point] |
| O=C(Nc1ccc(CN2CCCCC2)cc1)Nc1ccc(Br)cc1Cl |  | inconclusive: 7.08 µM [cytotoxic, full curve, poor fit] |
| CSCc1nnc(NC(=O)c2ccc(S(=O)(=O)N3CCCCC3C)cc2)o1 (configuration not stated) |  | inconclusive: 20 µM [cytotoxic, partial curve] |

| Compound | activity change, negative = cytotoxicity | Potency |
| --- | --- | --- |
| CN1CCC[C@H]1CCNc1ccc2c(=O)c3ccccc3n(C)c2c1 |  | inconclusive: 31.6 µM [rising, partial curve] |
| COc1ccc(-c2nn(-c3ccccc3)cc2C(=O)NC(=S)NNC(=O)c2ccncc2)cc1 |  | inconclusive: 25.1 µM [cytotoxic, partial curve] |
| COc1cccc(/C=N/NC(=O)c2ccc(=O)n(C)c2)c1O |  | inconclusive: 5.62 µM [cytotoxic, full curve] |
| O=C(CCC(=O)Nc1cc(C(F)(F)F)ccc1Cl)N/N=C\c1cc([N+](=O)[O-])ccc1O |  | inconclusive: 3.98 µM [cytotoxic, partial curve] |
| CC(=O)Nc1ccc(NC2=Nc3ccccc3N3C2=Nc2c(c(C)nn2-c2ccccc2)C3c2ccccc2)cc1 (configuration not stated) |  | inconclusive: 1.41 µM [rising, full curve] |
| Cc1nc2ccccc2c(=O)n1/N=C/c1cc(Br)ccc1O |  | inconclusive: 15.8 µM [cytotoxic, partial curve, poor fit] |
| CCn1c2ccccc2c2cc(/C=C(/C#N)C(N)=S)ccc21 | inactive: -29.2% |  |
| COc1ccc(-c2csc3ncnc(Sc4nnnn4C)c23)cc1 | inactive: -27.4% |  |
| Cc1sc2cc3c(c(C(=O)c4ccccc4)[n+]2c1C)-c1cccc2cccc-3c12 |  | active: 10 µM |
| O=C(/C=C/c1ccccc1Cl)c1ccccc(=O)c1O |  | inconclusive: 28.2 µM [cytotoxic, single point] |
| O=c1cc(-c2cccnc2)oc2c1ccc1ccccc12 |  | inconclusive: 3.16 µM [cytotoxic, partial curve] |
| CC(C)c1ccc2c(c1)C(N1CCNCC1)Cc1ccc(F)cc1S2 (configuration not stated) |  | inconclusive: 31.6 µM [cytotoxic, single point] |
| COc1cccc(/C=N/NC(=O)c2cc3c(OC)cccc3[nH]2)c1O |  | inconclusive: 3.16 µM [cytotoxic, full curve, poor fit] |
| CC(C)CCn1c(N)c(S(=O)(=O)c2cccs2)c2nc3ccccc3nc21 |  | inconclusive: 3.55 µM [cytotoxic, single point] |
| CCc1nc2c(OCCOc3ccc(F)cc3)cccn2c1N(C=O)Cc1ccc(OC)cc1 | inactive: -21.2% [at 57.5 µM] |  |
| O=C(CCCN1C(=O)/C(=C/c2ccccc2Cl)SC1=S)NNC(=O)c1ccc(Cl)cc1Cl |  | inconclusive: 31.6 µM [cytotoxic, single point] |
| COc1cc2[nH]c(=O)n(CCCCCC(=O)N3CC=C(c4ccccc4)CC3)c(=O)c2cc1OC |  | inconclusive: 8.91 µM [cytotoxic, single point] |
| COc1cccc(C(NC(C)=O)c2ccc3cccnc3c2O)c1 (configuration not stated) |  | inconclusive: 3.98 µM [cytotoxic, full curve] |
| CN(C)CCOc1nc(-c2ccccc2)nc2c1oc1ccccc12 |  | inconclusive: 17.8 µM [cytotoxic, partial curve] |
| CCOP(=O)(OCC)C(Cc1ccccc1)N=C(c1ccccc1)c1ccccc1 (configuration not stated) |  | inconclusive: 28.2 µM [cytotoxic, partial curve, poor fit] |
| CN(C)S(=O)(=O)c1ccc(-c2csc(N/N=C/c3ccco3)n2)cc1 |  | inconclusive: 2.82 µM [cytotoxic, single point] |
